Experimental data published in PubChem BioAssay AID1851 (National Center for Advancing Translational Sciences (NCATS), 2009).
What follows is the remainder of the data, with few or none of the hits. Records with an inconclusive call do not appear. Activity calls are given as the source filed them. The call rests on the fitted dose curve; in most records, active means well fitted curve in the direction sought with a large enough effect; inconclusive means small, poorly fitted or top-dose-only effect, or effect the other way; inactive means no such curve, though single readings can be large or run the other way.

Biological target: Cytochrome P450 1A2 (Homo sapiens) (UniProt P05177)
Sequence of UniProt P05177 (P05177 whole entry, looked up): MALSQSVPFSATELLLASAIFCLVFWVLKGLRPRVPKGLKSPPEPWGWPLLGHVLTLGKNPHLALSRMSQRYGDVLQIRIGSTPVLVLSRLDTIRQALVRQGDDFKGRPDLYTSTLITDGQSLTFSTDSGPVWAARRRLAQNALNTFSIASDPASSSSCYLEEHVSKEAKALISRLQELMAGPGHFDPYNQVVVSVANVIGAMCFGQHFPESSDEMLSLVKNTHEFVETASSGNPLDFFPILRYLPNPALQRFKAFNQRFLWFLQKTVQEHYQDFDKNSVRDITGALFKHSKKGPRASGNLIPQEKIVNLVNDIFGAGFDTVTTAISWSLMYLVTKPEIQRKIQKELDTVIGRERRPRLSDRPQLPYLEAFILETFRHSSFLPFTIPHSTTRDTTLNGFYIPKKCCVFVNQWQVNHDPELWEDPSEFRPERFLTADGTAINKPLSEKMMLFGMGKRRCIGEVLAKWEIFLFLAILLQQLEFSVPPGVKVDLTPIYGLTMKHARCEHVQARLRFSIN
Assay: Cytochrome panel assay with activity outcomes
Conditions: recombinant CYP, pro-luciferin dealkylation, luminescence, p450-cyp1a2; series mostly up to 57.1 µM; activity, negative = inhibition: at the top concentration
On the % scale 0 is the no-effect control and ±100 the full control effect.

| Compound | activity, negative = inhibition | AC50 |
| --- | --- | --- |
| C[C@@H]1C[C@H]2[C@@H]3C[C@H](F)C4=CC(=O)C=C[C@@]4(C)[C@]3(F)[C@H](O)C[C@]2(C)[C@@]1(O)C(=O)CO | inactive: -4% [at 25.6 µM] |  |
| COC(=O)C1=C(C(=O)OC)C(c2cc(Cl)ccc2O)c2sc(=O)[nH]c2S1 (stereo not drawn) |  | active: 4.47 µM |
| CCC[C@H]1C[C@H](C(=O)N[C@@H]([C@H]2O[C@@H](SC)[C@@H](O)[C@@H](O)[C@@H]2O)[C@H](C)Cl)N(C)C1 | inactive: -7.66% [at 25.6 µM] |  |
| CCOc1cc(/C=N/n2cnnc2)ccc1OC(=O)c1cccc([N+](=O)[O-])c1 |  | active: 5.01 µM |
| Nc1ccc(Sc2ccccc2CC(=O)O)cc1 | inactive: -15.5% |  |
| O=S(=O)(c1ccccc1)N1CCN(S(=O)(=O)c2ccccc2)c2ccccc21 | inactive: -19.9% [at 2.29 µM] |  |
| CCN(C(=O)CSc1nnc(Cc2cccc3ccccc23)n1N)C1CCS(=O)(=O)C1 (stereo not drawn) | inactive: 3.12% |  |
| COc1ccc(C2=NN(C)C(=NCc3ccccc3)SC2)cc1 |  | active: 14.1 µM |
